Experimental data taken from PubChem BioAssay AID651820 (National Center for Advancing Translational Sciences (NCATS), 2012).
In all, about 340,000 compounds went through this assay and about 12,000 (3.5%) were called active. Inconclusive means that the source gave no clear call. Such entries were picked first, then a sample of the others. The call rests on the fitted dose curve; in most records, active means well fitted inhibition curve with a large enough effect; inconclusive means small, poorly fitted or top-dose-only effect, or another doubt; inactive means no such curve, though single readings can be large or run the other way. Potencies of inconclusive entries are left out as doubtful fits.

assay: qHTS Assay for Inhibitors of Hepatitis C Virus (HCV); conditions: Huh7.5.1 HCVcc-Cre (HCVcc is cell-culture hepatitis C virus) infection, luciferase reporter, 44 h; series mostly up to 41.8 µM
Method in brief: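 Antiviral activity was scored by luciferase reporter output from cells infected with HCVcc-Cre (~0.5 moi) in presence of compound, 44 h infection period, cells seeded 1,000/well 4 h prior.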
Potency means the concentration at half of the fitted maximal effect; tags describe the fitted curve by direction and shape.

| SMILES | Potency |
| --- | --- |
| CC(C)N1CCc2c(sc(NC(=O)c3ccc4ccccc4c3)c2C(N)=O)C1 | active: 8.91 µM |
| CS(=O)(=O)N1CCC(C(=O)Nc2ccc3c(c2)OCO3)CC1 | inactive |
| COc1ccc(C(=O)CCc2ccccc2)cc1 | active: 11.2 µM |
| FC(F)(F)c1cccc(N2CCC(N=CN3CCCCCC3)=N2)c1 | inconclusive [inhibitor, single point] |
| O=c1cc(CSc2nnc(COc3ccc(Cl)cc3)o2)c2ccccc2[nH]1 | inconclusive [inhibitor, partial curve] |
| CCCNC(=O)C1(CC2CC(c3ccccc3)=NO2)CCN(C(=O)c2cc(OCC)c(OCC)c(OCC)c2)CC1 (centres undefined) | inconclusive [inhibitor, partial curve] |
| COc1cc(NC(=O)c2ccno2)cc(C(=O)Nc2cccc(C(F)(F)F)c2)c1 | inconclusive [inhibitor, single point] |
| OC(CNCC1CCCO1)Cn1c2ccccc2c2ccccc21 (centres undefined) | inconclusive [inhibitor, partial curve] |
| Cc1ccc(C(O)Cn2cc([N+](=O)[O-])nc2C)cc1 (centres undefined) | inactive |
| CCN(c1ccccc1)S(=O)(=O)c1ccc(NC(=O)c2nc(S(C)(=O)=O)ncc2Cl)cc1 | inconclusive [inhibitor, full curve] |
| CCOC(=O)c1cnc2ccc(OCC)cc2c1NCc1ccccc1OC | active: 7.08 µM |
| O=C(CN1C(=O)NC2(CCCCC2)C1=O)N1CCN(S(=O)(=O)c2ccc(F)c(F)c2F)CC1 | inactive |
| CC(NC(=O)c1cc2ccccc2o1)c1cccs1 (centres undefined) | inactive |
| CSc1nnc(NC(=O)c2nc(S(=O)(=O)Cc3cccc(C)c3)ncc2Cl)s1 | active: 12.6 µM |
| CCC(CO)Oc1cc(NC(=O)c2ccc(OC)cc2)c2ncn(C(C)C)c2c1 (centres undefined) | inconclusive [inhibitor, partial curve] |
| COCCCOc1cc(NCc2ccccc2)c2ncn(C(C)C)c2c1 | inconclusive [inhibitor, partial curve] |
| COc1ccc(CNc2nc(-c3cccnc3)nn2C(=O)C(C)C)cc1 | inactive |
| CCN1CCN(CC(=O)Nc2nc3ccc(C)cc3s2)CC1 | inconclusive [inhibitor, partial curve] |
| O=C(NCC(O)c1ccccc1)c1cccs1 (centres undefined) | inactive |
| CCn1c(/C=C/c2c(C)[nH]c3ccccc23)nc2ccccc2c1=O | inconclusive [inhibitor, partial curve] |
| CCOC(=O)c1cccc(NC(=O)CCNS(=O)(=O)c2cc(Br)cnc2N)c1 | inconclusive [inhibitor, single point] |
| CC(CN1CCCCC1)OC(=O)c1cccc(F)c1 (centres undefined) | inconclusive [inhibitor, single point] |
| Cc1ccc(S(=O)(=O)N(C)c2ccc(OCC(=O)Nc3nc4c(ccc5ccccc54)s3)cc2)cc1 | inconclusive [inhibitor, partial curve, poor fit] |

| SMILES | Potency |
| --- | --- |
| COc1cc(OC)c(OC)cc1/C=N/n1c(COc2ccccc2)n[nH]c1=S | inconclusive [inhibitor, partial curve] |
| Cc1ccc(-c2nc(S(=O)(=O)c3ccc(C)cc3)c(N(C)C)o2)cc1 | inconclusive [inhibitor, partial curve] |
| C=CCOc1ccc(C2=NO[C@@H]3[C@@H]4C[C@@H]([C@H]5C(=O)N(C)C(=O)[C@@H]45)[C@H]23)cc1 | inconclusive [inhibitor, full curve] |
| Cc1ccc(CNC(=O)c2cc(-c3ccccc3)n(Cc3cc(C)no3)n2)cc1 | inconclusive [inhibitor, single point] |
| Cc1ccc(S[C@@H](CCN2CC[C@H](C(C)(C)C)CCC2=O)c2ccccc2)cc1 | inconclusive [inhibitor, full curve] |
| Cc1ccc(OCCC(=O)Nc2ccc(S(=O)(=O)Nc3nccs3)cc2)cc1 | inactive |
| O=C1C(Cl)=C(Nc2ccccc2O)C(=O)N1CCc1ccccc1 | inactive |
| CC(=O)Nc1ccc(OCC(O)Cn2cnc3ccccc32)cc1 (centres undefined) | inactive |
| CN(CCCC(=O)Nc1ccc(Br)cc1F)S(=O)(=O)c1ccccc1 | inconclusive [inhibitor, single point] |
| COc1ccc(CCN(C)C(=O)c2cc(S(=O)(=O)N3CCCCCC3)ccc2OC)cc1OC | inconclusive [inhibitor, single point] |
| COC(=O)c1ccc(NC(=O)c2ccc3nc(C)sc3c2)cc1 | inconclusive [inhibitor, single point] |
| COc1ccc(Cn2c(-c3ccc(OC)c(O)c3)nc3ccccc32)cc1O | inactive |
| CCC1(CC)NC(=O)N(CC(=O)NCc2ccc3c(c2)OCO3)C1=O | inactive |
| CC(=O)Nc1sc2c(c1C#N)CC(C)(C)NC2(C)C | inactive |
| O=C(CSc1cn(CCNC(=O)c2cccs2)c2ccccc12)NCC1CCCO1 (centres undefined) | inconclusive [inhibitor, single point] |
| NNC(=O)CNC(c1ccccc1)c1cc(Br)ccc1NC(=O)c1ccccc1Br (centres undefined) | inactive |
| Cc1ccc(NC(=O)C2C3C=CC(O3)C2C(=O)O)cc1C (centres undefined) | inactive |
| CCCN1C(=O)COc2ccc(C(=O)c3ccccc3C(=O)O)cc21 | inactive |
| CC(C)N(C(=S)Nc1cccc(S(=O)(=O)N(C)C)c1)c1ccccc1 | inactive |
| O=S(=O)(c1ccc(SCCOc2ccc(Cl)cc2)nc1)N1CCCC1 | inconclusive [inhibitor, single point] |
| COc1ccc(C(=O)NCc2ccc(C)cc2)cc1S(=O)(=O)N1CCCC1 | inconclusive [inhibitor, single point] |
| COc1cccc(CNc2cc(CSc3ccc(Cl)cc3)nc(C)n2)c1 | inconclusive [inhibitor, single point] |
| O=C(C1CC1)N1CCc2cc(Br)cc(S(=O)(=O)NCCCN3CCCC3)c21 | inconclusive [inhibitor, single point] |

| SMILES | Potency |
| --- | --- |
| COc1ccc(NC(=O)CN(C)C(=O)c2cccnc2Sc2ccc(C)c(C)c2)cc1 | inconclusive [inhibitor, single point] |
| O=C(c1cccc(S(=O)(=O)N2CCN(c3ccc(F)cc3)CC2)c1)N1CCCCCCC1 | inconclusive [inhibitor, partial curve, poor fit] |
| CCOc1ccc(NC(=O)CSc2nc3ccccc3c(=O)n2CCCC(=O)NCCCN2CCCC2=O)cc1 | inconclusive [inhibitor, partial curve] |
| O=c1c2cccc3c(N4CCOCC4)ccc(c32)c2nc3ccccc3n12 | inconclusive [inhibitor, partial curve] |
| O=C(Nc1cccc(Cl)c1)c1ccc(-n2cncn2)c([N+](=O)[O-])c1 | inconclusive [inhibitor, partial curve] |
| O=C(Cc1ccc(NC(=O)C2CCN(C(=O)CCc3ccccc3)CC2)cc1)Nc1ccc(C(=O)N2CCOCC2)cc1 | inactive |
| CC1CCN(CCNC(=O)c2ccc3c(=O)n(Cc4ccc(Cl)cc4)c(=S)[nH]c3c2)CC1 | active: 6.31 µM |
| O=C1CC(c2ccccc2)c2cccc(F)c21 (centres undefined) | inactive |
| CCN(CC)c1ccc(/C=C(\C#N)c2nc(-c3cccs3)c(NC(C)=O)s2)cc1 | active: 12.6 µM |
| CN(C)c1ccc(NC(=O)CN2CCC(O)(c3ccccc3)CC2)cc1 | inactive |
| CC(=O)OC1CC(OC2C(O)CC(OC3C(O)CC(OC4CCC5(C)C(CCC6C5CC(O)C5(C)C(C7=CC(=O)OC7)CCC65O)C4)OC3C)OC2C)OC(C)C1OC1OC(CO)C(O)C(O)C1O (centres undefined) | active: 0.562 µM |
| N=c1c(S(=O)(=O)c2ccc(Br)cc2)cc2c(=O)n3ccccc3nc2n1Cc1ccccc1 | inconclusive [inhibitor, full curve, poor fit] |
| CCCCC(=O)Nc1ccc(C(=O)Nc2ccc(OC)cc2[N+](=O)[O-])cc1 | inconclusive [inhibitor, partial curve, poor fit] |
| COc1ccc(C(C)(C)C)cc1NC(=O)CCCN1C(=O)CN(C)C1=O | inconclusive [inhibitor, single point] |
| CC1CCCC(C)N1C(=O)CSc1nc2ccccc2s1 (centres undefined) | inconclusive [inhibitor, partial curve] |
| COc1ccc(NC(=O)c2ccc(COc3ccccc3)o2)c(OC)c1 | inactive |
| COc1ccc(-c2csc(NC(=O)c3ccc(S(=O)(=O)N4CCc5ccccc5C4)cc3)n2)cc1 | inconclusive [inhibitor, full curve] |
| CC(NC(=O)C1CCC(C)(C(=O)O)C1(C)C)c1ccccc1 (centres undefined) | inactive |
| CCOc1ccc(C(=O)Nc2ccc(S(=O)(=O)NCC3CCCO3)cc2)cc1OCC (centres undefined) | inconclusive [inhibitor, full curve, poor fit] |
| O=S(=O)(c1ccccc1F)N1CCN(CCOc2ccccc2)CC1 | inconclusive [inhibitor, single point] |
| CC1CC(C)CN(C(=O)c2cccc3c2-c2ccccc2C3=O)C1 (centres undefined) | inconclusive [inhibitor, single point] |
| CCCn1c(C(C)Nc2nc(-c3ccc(OC)cc3)cs2)nc2ccccc21 (centres undefined) | inconclusive [inhibitor, partial curve] |
| COc1cc(NC(=O)C2CCCCC2)c(OC)cc1NC(=O)c1ccccc1 | inconclusive [inhibitor, full curve, poor fit] |
